Reference: the supplement of paper PMC3334620
In all, about 33,000 sequences were measured (“E-score (-0.5 to 0.5)”: median about -0.032, highest 2% from about 0.36 on). The list shows a part of the results.

These sequences were tested against T1, Sko1 (UniProt Q02100) (assay: PBM E-score (8-mer binding enrichment) (E-score (-0.5 to 0.5)); higher = stronger / more preferred TF binding; most listed sequences are background and not binding sites). Conditions: protein concentration: 200 nM; construct: GST-full length.
T1 sequence: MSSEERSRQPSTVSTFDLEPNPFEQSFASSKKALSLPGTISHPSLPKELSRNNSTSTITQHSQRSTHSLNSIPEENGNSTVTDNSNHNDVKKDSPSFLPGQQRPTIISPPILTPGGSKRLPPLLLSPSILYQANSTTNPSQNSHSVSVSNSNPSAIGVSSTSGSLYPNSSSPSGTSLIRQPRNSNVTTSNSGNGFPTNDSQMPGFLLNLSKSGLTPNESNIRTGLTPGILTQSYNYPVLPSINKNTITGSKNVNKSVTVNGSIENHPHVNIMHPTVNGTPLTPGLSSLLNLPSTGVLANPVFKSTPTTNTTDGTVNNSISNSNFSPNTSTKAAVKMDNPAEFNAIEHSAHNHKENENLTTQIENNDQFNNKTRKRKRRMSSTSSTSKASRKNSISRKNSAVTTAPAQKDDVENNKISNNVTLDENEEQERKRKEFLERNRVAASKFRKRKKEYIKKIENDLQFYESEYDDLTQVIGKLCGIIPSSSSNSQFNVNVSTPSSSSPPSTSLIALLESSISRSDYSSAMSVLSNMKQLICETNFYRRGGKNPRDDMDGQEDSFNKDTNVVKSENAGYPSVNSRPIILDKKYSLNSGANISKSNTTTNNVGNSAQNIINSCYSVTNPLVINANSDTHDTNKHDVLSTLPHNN
How it was run: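 E-scores (a modified Wilcoxon-Mann-Whitney statistic) were assigned by the Universal PBM Analysis Suite to every ungapped eight-base word pooled with its reverse complement. The input came from universal all-10-mer Agilent arrays made double-stranded by primer extension and probed with GST-tagged yeast transcription factors at about 100-200 nM. Fluorescent anti-GST detected bound protein, and masliner normalised the scans.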

| Sequence | PBM E-score |
| --- | --- |
| AGGCATCC | -0.169 |
| GGAAGTTA | 0.0161 |
| AATCAAAC | 0.229 |
| GGTTCATA | 0.0132 |
| CCCCCCGG | -0.226 |
| CTGTGAAG | -0.221 |
| CGAACAGC | 0.01 |
| CCTGTTAC | 0.184 |
| CCCTGTGA | -0.0284 |
| CGATCTAC | 0.133 |
| GTTGCTAA | 0.143 |
| CCAACAGG | -0.213 |
| CTATATAC | 0.34 |
| ACCTGATA | 0.0213 |
| CCCGTTCA | -0.253 |
| AAAGGGGG | -0.239 |
| TTGACAAA | 0.233 |
| ACAATCGT | 0.168 |
| GGTACTAA | 0.148 |
| GTGGCTAA | 0.0152 |
| ACGATCCC | -0.175 |
| CCAAGCGG | -0.364 |
| AGAGCAAG | -0.0916 |
| ACACGAGT | -0.0245 |
| GCGGTATA | -0.0701 |

| Sequence | PBM E-score |
| --- | --- |
| CGTCCATA | 0.197 |
| GGCCACCA | 0.0382 |
| CGGAATTA | 0.174 |
| GGATGCGA | -0.213 |
| CTTATCAC | 0.108 |
| ACCCTATA | -0.179 |
| ATTCCATC | 0.122 |
| AGGAAACT | -0.179 |
| CGGGCGGA | -0.312 |
| AAAGATAA | 0.309 |
| GGCCTTAC | -0.0707 |
| CAGGACCG | -0.217 |
| CTACAGGA | -0.0238 |
| AAATGATC | 0.0628 |
| CGGGCTCC | -0.343 |
| CGTGTGTC | 0.308 |
| ATGCTTCG | 0.0182 |
| GCCAATTA | 0.0275 |
| ACGTTTAG | 0.355 |
| ACAGGATC | -0.228 |
| CTCACGTC | 0.278 |
| AAAATATG | 0.131 |
| GAAACGAA | 0.115 |
| CGGGACTA | -0.306 |
| CCCAATTA | -0.00491 |

| Sequence | PBM E-score |
| --- | --- |
| CCACATGA | -0.0316 |
| GAAGTGAC | 0.215 |
| CGAAGGGC | -0.104 |
| CGACCTCG | -0.147 |
| ACAATAAT | 0.136 |
| TCACGAGA | 0.0525 |
| CACTCCTG | -0.229 |
| ACTGAAGC | 0.061 |
| GCACCAGA | -0.0638 |
| CCGCTTTC | -0.206 |
| AGCCGCAA | -0.318 |
| GGGCTTCA | -0.264 |
| ATAGTCAG | 0.0782 |
| CAAACGCG | 0.191 |
| ATTACCTC | 0.135 |
| AACGCGAC | 0.0562 |
| GCGTTAGA | 0.0686 |
| AATTAACG | 0.224 |
| ATGCAAAG | 0.0207 |
| AATGCACT | 0.0553 |
| TGCCGACA | -0.0916 |
| TACAAGCA | 0.0786 |
| CCATTGTA | 0.119 |
| ACGTATAT | 0.453 |
| CCCGAAAC | -0.00638 |

| Sequence | PBM E-score |
| --- | --- |
| ATCTGGTC | -0.136 |
| GACAAACA | 0.107 |
| TGATGCAA | 0.239 |
| ACCCGGAA | -0.115 |
| CAAAATTC | 0.176 |
| CATCCCCG | -0.21 |
| TATTTAGA | 0.124 |
| GTCTAGAA | 0.0588 |
| CTGAAGGC | -0.0443 |
| ATGATAGC | 0.191 |
| AAGAATTA | 0.217 |
| GAAAGTCA | 0.0579 |
| AAAGCCCA | 0.0234 |
| GCTTACGA | 0.238 |
| GTAATAGA | 0.212 |
| ATTCTAAC | -0.0194 |
| AAAGAAAA | 0.187 |
| CGTCTCAA | 0.198 |
| CCCCTTAC | -0.11 |
| AATTTACA | 0.206 |
| AGTATACG | 0.267 |
| ATAACATC | 0.263 |
| ACTACGCC | -0.00632 |
| CAATAGCA | -0.132 |
| GGAAAGAA | 0.0108 |

| Sequence | PBM E-score |
| --- | --- |
| ATGGTATA | 0.139 |
| ACTGGGTC | -0.191 |
| TGGCGCCA | 0.0245 |
| CCTGGGAC | -0.161 |
| TGCGCCAA | -0.0647 |
| CGGGGTCA | -0.241 |
| AACCTCTG | -0.248 |
| CCCTCCCA | -0.0549 |
| AACAAGTA | 0.0824 |
| AAGATCCA | -0.253 |
| CTTTCTTA | 0.171 |
| GTTCAATA | 0.097 |
| CTTCCGGA | -0.157 |
| GCGTAATA | 0.421 |
| AGTACGCG | 0.236 |
| GACTCGGC | -0.355 |
| TATCCCCA | -0.0445 |
| GAATAGTC | -0.0748 |
| CACTCCAA | -0.0776 |
| CAAAAGTC | -0.111 |
| ATAGCTCC | -0.0145 |
| ATGGGAAA | -0.211 |
| ACCATAGT | -0.189 |
| GTGTCTTA | 0.133 |
| GCTATACA | 0.0971 |

| Sequence | PBM E-score |
| --- | --- |
| CGCCATCC | -0.00253 |
| GTAAACAA | 0.27 |
| AACGATGC | -0.0786 |
| CTCAATGC | -0.0345 |
| AGTTTCAA | -0.0302 |
| ATGTTGAA | 0.0028 |
| AAACGAGT | -0.0854 |
| AGCTCCTC | 0.00546 |
| CCGTGCCC | -0.355 |
| TCCACGAA | 0.212 |
| CCCCACGA | -0.128 |
| CATGAGGA | -0.0343 |
| GACATTAA | 0.158 |
| CGACTTGC | -0.0556 |
| TACAGCTA | -0.0853 |
| ACGCAAAT | 0.322 |
| CGTGAAAC | 0.203 |
| ACAATGAT | 0.246 |
| GTGAGGAA | -0.117 |
| TCGGGCAA | -0.0812 |
| GTTGCGAA | 0.222 |
| AGACAGCG | -0.238 |
| GTCGGTAA | -0.0021 |
| CGCACGGC | 0.0215 |
| ATATAAAC | 0.279 |

| Sequence | PBM E-score |
| --- | --- |
| AGTCGGCC | -0.233 |
| GGGTTTAA | -0.144 |
| CTTACCAC | -0.0202 |
| GAGGAATC | -0.152 |
| AATACAAC | 0.0837 |
| AATAACCA | 0.168 |
| ATGATTAC | 0.317 |
| AGCCAGTA | -0.322 |
| AAATAAAA | 0.163 |
| ACATTCAG | -0.188 |
| TAGATATA | 0.17 |
| AAGCACTA | -0.0212 |
| TATTGGCA | -0.0987 |
| CACTAGGA | -0.0975 |
| GCTCCTTA | -0.222 |
| AACTACGA | 0.198 |
| TCGCCCCA | -0.0387 |
| CCACTACC | -0.214 |
| CCTCCGAC | -0.176 |
| GGAGCGCC | -0.447 |
| CTAACACA | 0.0923 |
| CCCGAGCC | -0.235 |
